Data published in paper PMC8124269 (Molecules, 2021).
Read-outs that look alike come from different tables or passages of the source.

System: N NTD monomer of SARS-CoV-2
Settings: NTD (48 µM) monomer, [compound] = 75 µM; for ΔTm: versus N NTD alone; for Tm, apparent melting temperature: N NTD alone 51 ± 1

SMILES	Tm, shoulder in the derivative curve [°C]	ΔTm [°C]	ΔTm (listed as paracetamol)	Tm, apparent melting temperature [°C]	ΔTm (listed as naproxen A)
CC(=O)Nc1ccc(O)cc1 [Acetaminophen (paracetamol), Acetaminophen]	54	−5	did not stabilize N NTD	46 ± 2	–
COc1ccc2cc(C(CCC(=O)O)C(=O)O)ccc2c1 (centres unmarked) [Naproxen A]	58	−4	–	47 ± 2	did not stabilize N NTD
